# Biological target: T1, human β-klotho (human, UniProt Q86Z14 1-1044)
# T1 sequence (looked up): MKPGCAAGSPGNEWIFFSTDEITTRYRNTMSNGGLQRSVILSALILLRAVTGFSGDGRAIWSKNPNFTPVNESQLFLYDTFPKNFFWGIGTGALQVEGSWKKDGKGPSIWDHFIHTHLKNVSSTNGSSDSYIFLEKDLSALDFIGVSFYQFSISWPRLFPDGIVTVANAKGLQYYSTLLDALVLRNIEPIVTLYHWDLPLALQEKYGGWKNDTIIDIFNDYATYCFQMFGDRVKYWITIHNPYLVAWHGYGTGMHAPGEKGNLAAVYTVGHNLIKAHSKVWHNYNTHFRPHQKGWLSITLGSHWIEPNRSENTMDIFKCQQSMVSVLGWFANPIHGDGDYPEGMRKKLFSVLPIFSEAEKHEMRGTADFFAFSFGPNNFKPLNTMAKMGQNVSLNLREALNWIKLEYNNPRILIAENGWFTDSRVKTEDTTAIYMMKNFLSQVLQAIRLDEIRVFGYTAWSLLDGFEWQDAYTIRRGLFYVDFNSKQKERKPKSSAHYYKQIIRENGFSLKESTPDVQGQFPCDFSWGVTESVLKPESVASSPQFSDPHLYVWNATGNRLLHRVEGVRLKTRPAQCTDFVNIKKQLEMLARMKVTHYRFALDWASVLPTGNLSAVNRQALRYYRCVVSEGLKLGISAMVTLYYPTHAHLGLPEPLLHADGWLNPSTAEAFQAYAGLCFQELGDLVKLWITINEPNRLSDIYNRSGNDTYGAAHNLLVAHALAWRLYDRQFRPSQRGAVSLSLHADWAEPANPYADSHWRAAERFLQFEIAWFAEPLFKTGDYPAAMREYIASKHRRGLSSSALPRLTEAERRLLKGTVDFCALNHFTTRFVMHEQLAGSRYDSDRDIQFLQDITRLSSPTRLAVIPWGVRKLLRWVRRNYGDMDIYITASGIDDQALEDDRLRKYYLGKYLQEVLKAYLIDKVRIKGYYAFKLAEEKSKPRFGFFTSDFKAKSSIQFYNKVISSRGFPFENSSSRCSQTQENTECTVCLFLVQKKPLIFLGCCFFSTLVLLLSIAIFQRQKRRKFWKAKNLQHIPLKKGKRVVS
# Assay: cell-based or functional assay
binder,measurement,value
Fc-FGF21 (Lilly) (Fc fusion) [human IgG4 Fc with S228P F234A L235A (EU numbers) left out here]GGGGSGGGGSGGGGSAHPIPDSSPLLQFGGQVRQRYLYTDDAQQTECHLEIREDGTVGCAADQSPESLLQLKALKPGVIQILGVKTSRFLCQRPDGALYGSLHFDPEACSFREDLKEDGYNVYQSEAHGLPLHLPGDKSPHRKPAPRGPARFLPLPGLPPALPEPPGILAPQPPDVGSSDPLRLVEPSQLRSPSFE,"in vitro FGF21 activity (ERK phosphorylation, EC50 compared)",2 times higher than DFD1 and RGE (Amgen)
